{
  "source": "the supplement of paper PMC9446081",
  "note": "The campaign covered roughly 39,000 compounds. About 220 (0.56%) showed activity. This is one part of the list.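 Further: static incubation at 37 °C against the wild-type strain, values averaged over two biological replicates.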",
  "data": [
    {"tested_on": "Escherichia coli K-12 BW25113", "assay": "relative growth (OD600 normalised to plate interquartile mean) (fraction); higher = less growth inhibition, active = 0.2 or less", "conditions": "50 µM; LB; incubation time: overnight (16-24 h)", "values": [
      {"smiles": "Cc1ccc(S(=O)(=O)Nc2ccc3c(c2)C(=O)N([C@H](C)CO)C[C@@H](C)[C@@H](CN(C)C(=O)C2CCCCC2)OCCCC[C@H](C)O3)cc1", "relative growth": "inactive: 1"},
      {"smiles": "C[C@H]1CCCCO[C@H](CN(C)Cc2ccc3c(c2)OCO3)[C@@H](C)CN([C@@H](C)CO)C(=O)c2cc(NS(=O)(=O)c3ccccc3)ccc2O1", "relative growth": "inactive: 1.04"},
      {"smiles": "OC[C@H]1O[C@@H](Oc2cccc(O)c2CCCc2ccc(O)cc2)[C@@H](O)[C@@H](O)[C@@H]1O", "relative growth": "inactive: 1.02"},
      {"smiles": "COc1ccc(S(=O)(=O)N(C)C[C@@H]2OCCCC[C@@H](C)Oc3ccc(NS(=O)(=O)c4ccc(Cl)cc4)cc3C(=O)N([C@@H](C)CO)C[C@@H]2C)cc1", "relative growth": "inactive: 1.03"},
      {"smiles": "COc1ccc2c3c([nH]c2c1)[C@H](CO)N(C[C@]13CN(Cc2ccccc2Cl)C1)S(=O)(=O)c1cn(cn1)C", "relative growth": "inactive: 0.977"},
      {"smiles": "COCC#Cc1ccc2c(c1)O[C@@H](CN(C)S(=O)(=O)c1ccc(OC)cc1)[C@H](C)CN([C@H](C)CO)S2(=O)=O", "relative growth": "inactive: 1.04"},
      {"smiles": "C[C@H]1CN([C@@H](C)CO)C(=O)c2cc(NC(=O)Nc3ccc(C(F)(F)F)cc3)ccc2O[C@H]1CN(C)C(=O)Nc1cccc2ccccc12", "relative growth": "inactive: 1.02"},
      {"smiles": "C[C@@H]1CN([C@@H](C)CO)S(=O)(=O)c2ccc(/C=C/c3ccccc3)cc2O[C@@H]1CN(C)C(=O)CN1CCOCC1", "relative growth": "inactive: 1.02"},
      {"smiles": "Cc1ccc(S(=O)(=O)N(C)C[C@@H]2Oc3ccc(NC(=O)Cn4cnnn4)cc3CC(=O)N([C@H](C)CO)C[C@H]2C)cc1", "relative growth": "inactive: 1.01"},
      {"smiles": "C[C@H](CO)N1C[C@H](C)[C@H](CN(C)C(=O)Nc2ccc3c(c2)OCO3)OCCCC[C@H](C)Oc2ccc(NS(=O)(=O)c3ccccc3)cc2C1=O", "relative growth": "inactive: 1.04"},
      {"smiles": "CCCCCCCCC=CCCCCCCCC(=O)[O-].[NH3+]CCO", "relative growth": "inactive: 0.665"},
      {"smiles": "CCNC(=O)C[C@H]1CC[C@@H](NC(=O)C2CCOCC2)[C@H](CO)O1", "relative growth": "inactive: 0.992"},
      {"smiles": "C[C@H](CO)N1C[C@H](C)[C@@H](CN(C)S(C)(=O)=O)Oc2ccc(NC(=O)Nc3ccccc3)cc2CC1=O", "relative growth": "inactive: 0.981"},
      {"smiles": "COc1ccc(NC(=O)N(C)C[C@@H]2Oc3c(NC(=O)Nc4cccc5ccccc45)cccc3C(=O)N([C@H](C)CO)C[C@H]2C)cc1", "relative growth": "inactive: 1.02"},
      {"smiles": "CC(C)(C)NC(=O)C1CCC2C3CCC4NC(=O)C=CC4(C)C3CCC12C", "note": "(centres undefined)", "relative growth": "inactive: 1.1"},
      {"smiles": "C[C@H](CO)N1C[C@H](C)[C@H](CN(C)C(=O)Nc2ccc(C(F)(F)F)cc2)OCCCC[C@H](C)Oc2ccc(NS(=O)(=O)c3ccc(Cl)cc3)cc2C1=O", "relative growth": "inactive: 1"},
      {"smiles": "COc1ccc(CNC(=O)C[C@@H]2CC[C@H]3[C@H](COc4ccc(NC(=O)C(C)C)cc4C(=O)N3C)O2)cc1", "relative growth": "inactive: 0.982"},
      {"smiles": "NCc1ccc(C(=O)N2CCCCC2)cc1", "relative growth": "inactive: 1.01"},
      {"smiles": "c1coc(-c2nc3ccccc3n2CCC2CCCCC2)c1", "relative growth": "inactive: 0.924"},
      {"smiles": "CC(C)NC(=O)Nc1ccc2c(c1)C(=O)N([C@H](C)CO)C[C@@H](C)[C@H](CN(C)S(C)(=O)=O)OCCCC[C@@H](C)O2", "relative growth": "inactive: 0.983"},
      {"smiles": "Cc1noc(C)c1NC(=O)N(C)C[C@@H]1Oc2ccc(NC(=O)Nc3ccc(C(F)(F)F)cc3)cc2CC(=O)N([C@@H](C)CO)C[C@H]1C", "relative growth": "inactive: 0.973"},
      {"smiles": "C[C@@H]1CN([C@@H](C)CO)C(=O)Cc2cc(NC(=O)Nc3cccc4ccccc34)ccc2O[C@H]1CN(C)Cc1ccccc1", "relative growth": "inactive: 1.02"},
      {"smiles": "C[C@H](CO)N1C[C@H](C)[C@H](CN(C)C(=O)Nc2ccccc2)Oc2ccc(NC(=O)Nc3cccc4ccccc34)cc2CC1=O", "relative growth": "inactive: 1.03"},
      {"smiles": "C=CCc1c(C)[nH]c(N)nc1=O", "relative growth": "inactive: 1"},
      {"smiles": "Cc1cc2nc3c(=O)[nH]c(=O)nc-3n(CC(O)C(O)C(O)COP(=O)([O-])O)c2cc1C.[Na+]", "note": "(centres undefined)", "relative growth": "inactive: 0.99"},
      {"smiles": "C[C@@H]1CN([C@@H](C)CO)C(=O)c2cccc(NC(=O)Nc3ccc4c(c3)OCO4)c2O[C@H]1CN(C)C(=O)Nc1ccc(C(F)(F)F)cc1", "relative growth": "inactive: 0.962"},
      {"smiles": "COc1ccc(C#Cc2ccc3c(c2)[C@]2(C(=O)N3)[C@H](c3ccc(OCCO)cc3)N3[C@H](c4ccccc4)[C@H](c4ccccc4)OC(=O)[C@H]3[C@@H]2C(=O)NC[C@H](O)c2ccccc2)cc1", "relative growth": "inactive: 1.1"},
      {"smiles": "C[C@@H]1CN([C@H](C)CO)S(=O)(=O)c2ccc(C#C[C@@H](C)O)cc2O[C@H]1CN(C)C(=O)c1ccncc1", "relative growth": "inactive: 1.02"},
      {"smiles": "COc1ccc(S(=O)(=O)N(C)C[C@@H]2Oc3c(NC(=O)C4CC4)cccc3C(=O)N([C@H](C)CO)C[C@@H]2C)cc1", "relative growth": "inactive: 1.01"},
      {"smiles": "C[C@H](CO)N1C[C@H](C)[C@@H](CN(C)C(=O)Nc2ccc(F)cc2)Oc2cc(C#CC3(O)CCCC3)ccc2S1(=O)=O", "relative growth": "inactive: 1.02"},
      {"smiles": "O.O.OCC1OC(OC2OC(CO)C(O)C(O)C2O)C(O)C(O)C1O", "note": "(centres undefined)", "relative growth": "inactive: 1.12"},
      {"smiles": "C[C@H](O)C#Cc1cnc2c(c1)C(=O)N([C@H](C)CO)C[C@@H](C)[C@@H](CN(C)C(=O)Nc1ccc(C(F)(F)F)cc1)O2", "relative growth": "inactive: 0.987"},
      {"smiles": "C[C@H]1CCCCO[C@@H](CN(C)C(=O)NC2CCCCC2)[C@@H](C)CN([C@@H](C)CO)C(=O)c2cc(NC(=O)Nc3ccc(C(F)(F)F)cc3)ccc2O1", "relative growth": "inactive: 1.03"},
      {"smiles": "C[C@@H]1CN([C@H](C)CO)C(=O)c2cc(NS(=O)(=O)c3ccc(Cl)cc3)ccc2O[C@@H](C)CCCCO[C@H]1CN(C)C(=O)C1CCCCC1", "relative growth": "inactive: 1.01"},
      {"smiles": "C[C@@H]1CCCCO[C@@H](CN(C)Cc2ccc(C(F)(F)F)cc2)[C@@H](C)CN([C@H](C)CO)C(=O)c2cc(NC(=O)Cc3ccccc3)ccc2O1", "relative growth": "inactive: 1.03"},
      {"smiles": "CCC(=O)N[C@@H]1CC[C@H](CC(=O)OC)O[C@@H]1CO", "relative growth": "inactive: 1"},
      {"smiles": "CC(C(=O)O)c1ccc2c(c1)[nH]c1ccc(Cl)cc12", "note": "(centres undefined)", "relative growth": "inactive: 1.11"},
      {"smiles": "Cc1noc(C)c1S(=O)(=O)N(C)C[C@H]1Oc2ccc(NC(=O)CCN3CCOCC3)cc2CC(=O)N([C@H](C)CO)C[C@H]1C", "relative growth": "inactive: 1.01"},
      {"smiles": "C[C@@H](NC(=O)C[C@@H]1CC[C@H](NC(=O)CN2CCOCC2)[C@H](CO)O1)c1ccccc1", "relative growth": "inactive: 1.03"},
      {"smiles": "Cc1noc(C)c1S(=O)(=O)Nc1ccc2c(c1)C(=O)N([C@@H](C)CO)C[C@@H](C)[C@H](CN(C)Cc1ccncc1)O2", "relative growth": "inactive: 0.993"},
      {"smiles": "Cl.c1ccc(CC2=NCCN2)cc1", "relative growth": "inactive: 0.98"},
      {"smiles": "C[C@@H]1CN([C@@H](C)CO)C(=O)Cc2cc(NS(=O)(=O)c3cccs3)ccc2O[C@@H]1CN(C)Cc1ccc(Oc2ccccc2)cc1", "relative growth": "inactive: 0.771"},
      {"smiles": "C[C@@H]1CCCCO[C@H](CN(C)C(=O)Nc2ccccc2)[C@@H](C)CN([C@@H](C)CO)C(=O)c2cc(NC(=O)c3ccncc3)ccc2O1", "relative growth": "inactive: 0.994"},
      {"smiles": "CO[C@@H]1CN(C)C(=O)c2ccc(NC(=O)Nc3ccccc3)cc2OC[C@H](C)N(C(=O)CN(C)C)C[C@H]1C", "relative growth": "inactive: 0.925"},
      {"smiles": "C[C@H](CO)N1C[C@H](C)[C@H](CN(C)S(C)(=O)=O)Oc2ccc(NC(=O)Cn3cnnn3)cc2C1=O", "relative growth": "inactive: 1.02"},
      {"smiles": "COc1ccc(NC(=O)Nc2ccc3c(c2)C(=O)N([C@H](C)CO)C[C@@H](C)[C@H](CN(C)S(=O)(=O)c2ccc(Cl)cc2)OCCCC[C@@H](C)O3)cc1", "relative growth": "inactive: 1.06"},
      {"smiles": "CO[C@H]1CN(C)C(=O)c2ccc(NC(=O)NC(C)C)cc2OC[C@@H](C)N(Cc2ccc(-c3ccccn3)cc2)C[C@@H]1C", "relative growth": "inactive: 1"},
      {"smiles": "NCc1ccc(-c2nccs2)cc1", "relative growth": "inactive: 0.993"},
      {"smiles": "C=CCNC1=C2C[C@@H](C)C[C@H](OC)[C@H](O)[C@@H](C)/C=C(\\C)[C@H](OC(N)=O)[C@@H](OC)/C=C\\C=C(/C)C(=O)NC(=CC1=O)C2=O", "relative growth": "inactive: 0.983"},
      {"smiles": "O=C(C[C@@H]1C[C@H]2c3cc(NC(=O)Nc4ccc(C(F)(F)F)cc4)ccc3O[C@H]2[C@H](CO)O1)NCc1ccc(Cl)cc1", "relative growth": "inactive: 0.984"},
      {"smiles": "O=C(C[C@H]1CC[C@H]2[C@@H](COC[C@@H](O)CN2S(=O)(=O)c2ccccc2)O1)N1CCOCC1", "relative growth": "inactive: 0.964"},
      {"smiles": "C[C@H](CO)N1C[C@H](C)[C@H](CN(C)Cc2ccc(C(F)(F)F)cc2)Oc2c(NS(=O)(=O)c3ccc(Cl)cc3)cccc2C1=O", "relative growth": "inactive: 0.994"},
      {"smiles": "C[C@H](CO)N1C[C@H](C)[C@@H](CN(C)CC2CC2)Oc2ccc(NC(=O)Cn3cnnn3)cc2CC1=O", "relative growth": "inactive: 1"},
      {"smiles": "C[C@@H]1CN([C@@H](C)CO)C(=O)c2cc(NS(=O)(=O)c3ccc(Cl)cc3)ccc2O[C@@H](C)CCCCO[C@@H]1CN(C)Cc1ccncc1", "relative growth": "inactive: 1"},
      {"smiles": "C[C@@H]1CCCCO[C@H](CN(C)C(=O)Nc2ccccc2)[C@@H](C)CN([C@@H](C)CO)C(=O)c2cc(NC(=O)C3CCCCC3)ccc2O1", "relative growth": "inactive: 0.963"},
      {"smiles": "C[C@H](CO)N1C[C@H](C)[C@H](CN(C)Cc2ccc(C(=O)O)cc2)OCCCC[C@H](C)Oc2ccc(NS(=O)(=O)c3ccc(F)cc3)cc2C1=O", "relative growth": "inactive: 1"},
      {"smiles": "C=CC[C@@H](CC(=O)N[C@H](CO)Cc1ccccc1)C(=O)N[C@H](C)COC(=O)[C@@H](CC=C)CC(=O)OC(C)(C)C", "relative growth": "inactive: 0.996"},
      {"smiles": "COc1ccc(NC(=O)Nc2ccc3c(c2)C(=O)N([C@@H](C)CO)C[C@H](C)[C@H](CN(C)Cc2ccc(Cl)c(Cl)c2)O3)cc1", "relative growth": "inactive: 1.03"},
      {"smiles": "C[C@@H]1CCCCO[C@@H](CN(C)C(=O)C2CCCCC2)[C@@H](C)CN([C@@H](C)CO)C(=O)c2cc(NC(=O)Nc3cccc4ccccc34)ccc2O1", "relative growth": "inactive: 1.01"}
    ]}
  ]
}
